# Laboratory results reported in the supplement of paper PMC12217912.
# This is one part of the list. The full chains were built here from the parent and the listed change. Values near 0.05 are background.
# B1: TEV protease; numbered along this chain (parent)
# chain: MGESLFKGPRDYNPISSSICHLTNESDGHTTSLYGIGFGPFIITNKHLFRRNNGTLVVQSLHGVFKVKDTTTLQQHLVDGRDMIIIRMPKDFPPFPQKLKFREPQREERICLVTTNFQTKSMSSMVSDTSCTFPSGDGIFWKHWIQTKDGQCGSPLVSTRDGFIVGIHSASNFTNTNNYFTSVPKNFMELLTNQEAQQWVSGWRLNADSVLWGGHKVFMVKPEEPFQPVKEATQL
# Variants of: B1
# Test: raw area under fraction-flipped curve 0-4 h after induction (AUC4h, not background-subtracted), DNA-recorder readout of cleavage of the substrate (dimensionless); higher = more cleavage of the substrate by the protease variant
# Settings: temperature: 34 °C; time window: 0-4 h after rhamnose induction
# Procedure: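 In vivo DNA recorder in E. coli TOP10(DE3) ΔrhaA at 34 °C. Each TEVp single-site mutant (parent TEVp 0) is paired with a single-site variant of the 7-mer TEVs (canonical ENLYFQ|S). The substrate sits between flexible linkers in a Bxb1-sfGFP-TEVs-SsrA fusion, so cleavage stabilises Bxb1 and speeds flipping of a recombination array, read by NGS. The value is the raw area under the fraction-flipped curve over 0-4 h after rhamnose induction (AUC4h), with ≥20 reads per time point. It is not background-subtracted; inactive controls average about 0.047.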
# 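Note: Bxb1 expression induced with 0.2% (w/v) L-rhamnose at OD600 near 0.5, cultures sampled hourly, flipped fraction per protease–substrate barcode pair counted by paired-end Illumina sequencing.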
Variant,area with substrate EALYFQS,area with substrate EGLYFQS,area with substrate EKLYFQS,area with substrate ELLYFQS,area with substrate EMLYFQS,area with substrate EQLYFQS,area with substrate ESLYFQS,area with substrate EVLYFQS,area with substrate EWLYFQS,area with substrate ECLYFQS,area with substrate EELYFQS,area with substrate EPLYFQS,area with substrate ERLYFQS,area with substrate ETLYFQS,area with substrate EYLYFQS,area with substrate EDLYFQS,area with substrate EFLYFQS,area with substrate EILYFQS,area with substrate EHLYFQS
M219C,0.115,0.0768,0.0917,0.0964,0.0798,0.105,0.102,0.0993,0.117,–,–,–,–,–,–,–,–,–,–
M219V,0.134,0.121,0.0768,–,0.12,0.117,0.098,0.09,0.1,0.102,0.128,0.0927,0.0915,0.133,0.113,–,–,–,–
M219E,0.0826,–,0.0728,0.0261,–,–,0.0822,–,0.075,0.0437,0.084,–,–,–,0.161,0.121,0.11,0.0622,–
K221I,0.0988,0.0745,0.0882,0.103,–,0.088,0.0871,0.089,0.0785,0.0912,0.107,–,0.0911,0.0811,0.13,0.0876,–,0.0925,0.0884
Q234K,0.119,–,0.132,0.0884,0.119,0.114,0.118,0.127,0.0949,0.112,0.122,–,0.0992,0.127,–,–,0.0656,0.101,0.0713
Q234I,0.114,–,0.0866,0.11,0.0998,0.118,0.116,–,0.0977,0.0912,0.0953,–,0.0941,–,0.0981,–,0.0993,0.0791,–
H215W,0.0399,0.0587,0.0255,0.0513,0.0693,–,0.0645,0.0723,0.0929,0.0827,–,0.0429,0.075,0.107,–,0.0602,0.0555,0.0651,–
H215D,0.0692,0.0526,0.0635,–,–,0.0665,0.0613,0.062,0.0574,–,0.0514,0.0604,–,0.059,0.0726,0.0584,–,0.0642,–
V220P,0.121,0.0731,0.0773,0.0634,0.0858,0.0819,0.0862,0.0753,0.0897,0.0763,0.112,0.0959,0.0709,0.125,–,0.135,–,0.0704,0.0775
T233H,0.122,0.151,0.101,–,–,0.119,–,0.1,–,0.0449,–,–,–,–,–,0.0718,0.0996,0.0978,0.0815
E223T,0.0558,0.149,0.0765,0.0853,0.096,0.103,0.0982,–,–,0.112,0.112,0.0972,0.0826,–,0.0854,0.124,–,0.0713,–
E231H,0.123,0.093,0.123,–,–,0.105,0.15,0.082,0.0967,0.0734,–,0.11,–,–,–,0.101,0.0879,–,–
E231T,0.129,0.101,0.092,0.103,–,0.0976,0.102,0.0931,0.0986,0.137,–,–,0.0932,0.0991,–,–,–,0.113,0.104
P225F,0.114,–,0.0992,0.0987,0.0884,0.0803,0.0978,0.0932,–,–,0.104,–,–,–,–,0.123,–,0.0979,–
V217Q,0.0775,0.0556,0.0654,0.0565,0.0187,–,0.0534,0.059,0.065,0.0468,–,0.0665,0.0646,–,–,–,–,0.0426,–
S4N,–,0.108,0.113,0.147,0.149,0.141,0.128,–,0.0609,0.112,0.153,0.125,0.157,0.139,0.136,0.0637,0.148,–,0.138
R204T,0.136,0.113,0.0762,0.101,0.118,–,0.0969,0.113,0.0901,0.0816,0.112,0.086,0.0868,0.128,0.157,0.0763,–,0.116,0.0585
K230V,0.108,–,0.0863,0.0968,–,0.117,0.104,0.084,0.101,0.0852,–,–,0.077,0.113,–,0.117,0.1,0.116,–
K230M,0.111,0.07,0.134,0.0918,0.116,0.162,0.09,0.0656,–,0.0846,0.115,0.116,0.104,0.11,–,–,0.0988,0.0826,0.0978
F6H,–,0.12,0.0974,0.0972,–,0.106,0.11,–,–,0.101,0.107,–,–,0.121,–,0.132,–,0.104,–
P222C,0.0842,–,0.0934,–,0.0851,0.0911,0.0913,0.0864,–,0.085,–,–,0.0794,–,0.102,0.108,–,0.0853,–
P222S,0.0781,0.0666,0.0915,0.0761,0.0862,0.103,0.0992,0.1,0.0809,0.0787,–,0.106,0.0863,0.0954,0.061,0.0925,–,–,0.0952
D11S,–,–,0.138,0.0942,0.113,0.138,0.107,0.17,0.104,0.114,0.151,0.0827,0.0951,0.135,0.126,0.146,0.122,0.097,0.119
N13G,–,0.0845,0.134,0.12,0.117,0.082,0.0957,0.0812,0.103,0.0908,0.0944,0.103,–,–,0.0883,0.105,–,0.0785,0.0931
N206H,0.0632,0.0863,0.0832,–,0.104,0.12,0.0903,0.0773,0.0904,0.0904,0.112,0.12,0.118,0.118,0.101,0.1,–,0.0822,0.118
F226W,0.116,0.0861,0.0909,0.108,0.108,0.138,0.105,0.0966,0.1,0.0987,–,0.146,0.0759,–,0.0916,0.113,0.117,0.0957,0.134
